Laboratory results published in the supplement of paper PMC3722116.

Tests used:
[1] = compound: T1, OC(c1cc(C(F)(F)F)nc2c(C(F)(F)F)cccc12)C1CCCCN1 [mefloquine]; assay: slope of the dose-response curve (dimensionless); higher = steeper concentration-effect curve
Experimental: (§1)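 Hypoxanthine uptake by fresh isolates, duplicate serial dilutions, 24 h of drug plus 18 h after the label; sigmoid fit per isolate.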

[2] = compound: T2, CCN(CC)CCCC(C)Nc1ccnc2cc(Cl)ccc12 [chloroquine]; assay: as above
Experimental: as §1

[3] = compound: T3, C[C@H]1[C@H](OC(=O)CCC(=O)O)O[C@@H]2O[C@@]3(C)CC[C@H]4[C@H](C)CC[C@@H]1[C@@]24OO3 [artesunate]; assay: as above
Experimental: as §1

[4] = compound: T4, CCCCN(CCCC)CC(O)c1cc(Cl)cc2c1-c1ccc(Cl)cc1/C2=C/c1ccc(Cl)cc1 [lumefantrine]; assay: as above
Experimental: as §1

[5] = compound: T1, mefloquine
Experimental: as §1

[6] = compound: T2, chloroquine
Experimental: as §1

[7] = compound: T3, artesunate
Experimental: as §1

[8] = compound: T4, lumefantrine
Experimental: as §1

Row | Test System | slope [1] | slope [2] | slope [3] | slope [4] | EC50 of parasite growth [5] [µg/mL] | EC50 of parasite growth [6] [µg/mL] | EC50 of parasite growth [7] [µg/mL] | EC50 of parasite growth [8] [µg/mL]
1 | Plasmodium falciparum isolate 4 (pfmdr1 allele: 86N, 1042N, pfmdr1 copies: 1) | 1.63 | 1.73 | 1.54 | 0.97 | 0.00656 | 0.0376 | 0.000249 | 0.00169
2 | Plasmodium falciparum isolate 87 (pfmdr1 allele: 86N, 1042N, pfmdr1 copies: 2) | 4.11 | 4.28 | 5.73 | 2.04 | 0.0623 | 0.0862 | 0.000373 | 0.0295
3 | Plasmodium falciparum isolate 47 (pfmdr1 allele: 86N, 1042N, pfmdr1 copies: 1) | 2.61 | 5.98 | 5.82 | 1.75 | 0.0348 | 0.136 | 0.000758 | 0.0352
4 | Plasmodium falciparum isolate 253 (pfmdr1 allele: 86N, 1042N, pfmdr1 copies: 1) | 1.1 | 2.75 | 2.64 | 0.755 | 0.00363 | 0.0849 | 0.000403 | 0.00457
5 | Plasmodium falciparum isolate 179 (pfmdr1 allele: 86N, 1042N, pfmdr1 copies: 1) | 2.55 | 2.84 | 2.96 | 2.41 | 0.013 | 0.0374 | 0.000489 | 0.0086
6 | Plasmodium falciparum isolate 387 (pfmdr1 allele: 86N, 1042N, pfmdr1 copies: 1) | 1.82 | 5.3 | 6.17 | 1.46 | 0.0192 | 0.207 | 0.000292 | 0.0256
7 | Plasmodium falciparum isolate 12 (pfmdr1 allele: 86N, 1042N, pfmdr1 copies: 1) | 2.95 | 4.01 | 6.28 | 2.43 | 0.0404 | 0.279 | 0.00131 | 0.0124
8 | Plasmodium falciparum isolate 279 (pfmdr1 allele: 86N, 1042N, pfmdr1 copies: 2) | 2.01 | 2.8 | 5.25 | 1.58 | 0.0857 | 0.119 | 0.00107 | 0.0331
9 | Plasmodium falciparum isolate 314 (pfmdr1 allele: 86N, 1042N, pfmdr1 copies: 1) | 1.63 | 2.58 | 1.85 | 1.94 | 0.00379 | 0.117 | 0.000108 | 0.00865
10 | Plasmodium falciparum isolate 88 (pfmdr1 allele: 1042D, pfmdr1 copies: 1) | 3.07 | 5.97 | 6.09 | 3.04 | 0.0149 | 0.273 | 0.00031 | 0.00714
11 | Plasmodium falciparum isolate 24 (pfmdr1 allele: 86N, 1042N, pfmdr1 copies: 1) | 2.8 | 5.32 | 4.79 | 2 | 0.0249 | 0.167 | 0.00199 | 0.00994
12 | Plasmodium falciparum isolate 27 (pfmdr1 allele: 86N, 1042N, pfmdr1 copies: 2) | 4.92 | 0.872 | 3.78 | 3.92 | 0.0723 | 0.29 | 0.00103 | 0.0652
13 | Plasmodium falciparum isolate 300 (pfmdr1 allele: 86N, 1042N, pfmdr1 copies: 1) | 2.9 | 6.46 | 5.84 | 2.61 | 0.0341 | 0.176 | 0.00126 | 0.0173
14 | Plasmodium falciparum isolate 229 (pfmdr1 allele: 86N, 1042N, pfmdr1 copies: 3) | 2.49 | 4.28 | 10 | 2.26 | 0.0214 | 0.0428 | 0.000918 | 0.00895
15 | Plasmodium falciparum isolate 445 (pfmdr1 allele: 86N, 1042N, pfmdr1 copies: 3) | 4.26 | 2.37 | 5.82 | 2.86 | 0.0529 | 0.032 | 0.000785 | 0.0274
16 | Plasmodium falciparum isolate 398 (pfmdr1 allele: 86N, 1042N, pfmdr1 copies: 1) | 3.97 | 4.11 | 9.99 | 2.46 | 0.0457 | 0.0907 | 0.000948 | 0.0391
17 | Plasmodium falciparum isolate 220 (pfmdr1 allele: 86N, 1042N, pfmdr1 copies: 1) | 2.46 | 4.66 | 4.25 | 2.01 | 0.0144 | 0.0777 | 0.000795 | 0.0131
18 | Plasmodium falciparum isolate 64 (pfmdr1 allele: 86N, 1042N, pfmdr1 copies: 3) | 2.94 | 2.86 | 2.93 | 2.73 | 0.0484 | 0.114 | 0.00103 | 0.04
19 | Plasmodium falciparum isolate 215 (pfmdr1 allele: 86N, 1042N, pfmdr1 copies: 4) | 4.69 | 5.33 | 10 | 2.22 | 0.0934 | 0.112 | 0.00205 | 0.0489
20 | Plasmodium falciparum isolate 484 (pfmdr1 allele: 1042D, pfmdr1 copies: 1) | 2.4 | 4.02 | 9.61 | 2.6 | 0.0225 | 0.293 | 0.00163 | 0.00807
21 | Plasmodium falciparum isolate 164 (pfmdr1 allele: 86N, 1042N, pfmdr1 copies: 1) | 3.17 | 3.86 | 6 | 2.12 | 0.0304 | 0.16 | 0.000823 | 0.038

Row | Test System | slope [1] | slope [2] | slope [3] | slope [4] | EC50 of parasite growth [5] [µg/mL] | EC50 of parasite growth [6] [µg/mL] | EC50 of parasite growth [7] [µg/mL] | EC50 of parasite growth [8] [µg/mL]
22 | Plasmodium falciparum isolate 136 (pfmdr1 allele: 86N, 1042N, pfmdr1 copies: 1) | 1.82 | 9.99 | 3.9 | 5.51 | 0.0407 | 0.365 | 0.000484 | 0.00802
23 | Plasmodium falciparum isolate 238 (pfmdr1 allele: 86N, 1042N, pfmdr1 copies: 1) | 3.27 | 2.58 | 3.31 | 1.48 | 0.00592 | 0.0504 | 0.000311 | 0.00195
24 | Plasmodium falciparum isolate 299 (pfmdr1 allele: 86N, 1042N, pfmdr1 copies: 1) | 2.17 | 3.21 | 5.84 | 2.04 | 0.0125 | 0.111 | 0.000604 | 0.018
25 | Plasmodium falciparum isolate 393 (pfmdr1 allele: 86N, 1042N, pfmdr1 copies: 2) | 2.27 | 6.11 | 12.1 | 1.6 | 0.0481 | 0.192 | 0.00195 | 0.0301
26 | Plasmodium falciparum isolate 306 (pfmdr1 allele: 86N, 1042N, pfmdr1 copies: 2) | 2.34 | 3.04 | 4.81 | 1.91 | 0.0602 | 0.17 | 0.000961 | 0.0192
27 | Plasmodium falciparum isolate 22 (pfmdr1 allele: 86N, 1042N, pfmdr1 copies: 1) | 2.15 | 3.02 | 6.06 | 2.1 | 0.0319 | 0.0602 | 0.00123 | 0.0331
28 | Plasmodium falciparum isolate 399 (pfmdr1 allele: 86N, 1042N, pfmdr1 copies: 1) | 2.5 | 4.16 | 13.1 | 2.8 | 0.0186 | 0.0723 | 0.000559 | 0.0281
29 | Plasmodium falciparum isolate 379 (pfmdr1 allele: 86N, 1042N, pfmdr1 copies: 1) | 2.51 | 3.08 | 2.4 | 1.47 | 0.00299 | 0.167 | 0.000276 | 0.00194
30 | Plasmodium falciparum isolate 438 (pfmdr1 allele: 1042D, pfmdr1 copies: 1) | 2.85 | 4.8 | 4.52 | 2.75 | 0.0165 | 0.118 | 0.000404 | 0.00902
31 | Plasmodium falciparum isolate 324 (pfmdr1 allele: 86N, 1042N, pfmdr1 copies: 1) | 3.62 | 5.48 | 4.26 | 2.07 | 0.0396 | 0.0713 | 0.00135 | 0.0149
32 | Plasmodium falciparum isolate 369 (pfmdr1 allele: 86N, 1042N, pfmdr1 copies: 1) | 2.86 | 2.44 | 2.34 | 1.33 | 0.00513 | 0.0554 | 0.000214 | 0.00229
33 | Plasmodium falciparum isolate 276 (pfmdr1 allele: 86Y, pfmdr1 copies: 1) | 2.81 | 3.84 | 4.21 | 1.63 | 0.00511 | 0.147 | 0.000344 | 0.0074
34 | Plasmodium falciparum isolate 278 (pfmdr1 allele: 86N, 1042N, pfmdr1 copies: 1) | 1.44 | 4.74 | 3.09 | 1.09 | 0.0368 | 0.257 | 0.000727 | 0.0165
35 | Plasmodium falciparum isolate 237 (pfmdr1 allele: 86N, 1042N, pfmdr1 copies: 1) | 3.11 | 5.29 | 5.71 | 2.7 | 0.0163 | 0.222 | 0.000278 | 0.00551
36 | Plasmodium falciparum isolate 189 (pfmdr1 allele: 86N, 1042N, pfmdr1 copies: 2) | 2.86 | 2.9 | 7.83 | 3.2 | 0.0805 | 0.0524 | 0.000705 | 0.0844
37 | Plasmodium falciparum isolate 347 (pfmdr1 allele: 86N, 1042N, pfmdr1 copies: 1) | 2.33 | 3.08 | 5.67 | 2.14 | 0.0264 | 0.113 | 0.0011 | 0.0188
38 | Plasmodium falciparum isolate 83 (pfmdr1 allele: 86N, 1042N, pfmdr1 copies: 2) | 2.05 | 2.89 | 3.11 | 3.2 | 0.0237 | 0.315 | 0.000539 | 0.0552
39 | Plasmodium falciparum isolate 305 (pfmdr1 allele: 86N, 1042N, pfmdr1 copies: 1) | 1.85 | 4.62 | 2.36 | 2.2 | 0.00658 | 0.234 | 0.00029 | 0.00218
40 | Plasmodium falciparum isolate 203 (pfmdr1 allele: 86N, 1042N, pfmdr1 copies: 2) | 2.96 | 2.8 | 7.74 | 2.63 | 0.0303 | 0.0502 | 0.000574 | 0.013
41 | Plasmodium falciparum isolate 410 (pfmdr1 allele: 86N, 1042N, pfmdr1 copies: 1) | 1.99 | 3.84 | 3.71 | 1.99 | 0.025 | 0.0768 | 0.000417 | 0.0197

Growth of fresh clinical P. falciparum isolates by hypoxanthine uptake over 42 h; for most isolates 1.6-1,647 nM mefloquine, 0.044-87 nM artesunate, 10-10,256 nM chloroquine, 2.4-236 nM lumefantrine. EC50, lower = more sensitive; slope from the same fit, higher = steeper. No active / inactive call. Fits with a coefficient of variation above 100% are not listed here; 15-28% of fits exceed 15%. Isolates are numbered anew.
